The other results are listed elsewhere or left out. The full chains were built here from the parent and the listed change. Inactive controls read about 0.05.
B1: TEV protease; numbered along this chain (parent)
chain: MGESLFKGPRDYNPISSSICHLTNESDGHTTSLYGIGFGPFIITNKHLFRRNNGTLVVQSLHGVFKVKDTTTLQQHLVDGRDMIIIRMPKDFPPFPQKLKFREPQREERICLVTTNFQTKSMSSMVSDTSCTFPSGDGIFWKHWIQTKDGQCGSPLVSTRDGFIVGIHSASNFTNTNNYFTSVPKNFMELLTNQEAQQWVSGWRLNADSVLWGGHKVFMVKPEEPFQPVKEATQL

Variants of: B1
Assay: raw area under fraction-flipped curve 0-4 h after induction (AUC4h, not background-subtracted), DNA-recorder readout of cleavage of the substrate (dimensionless); higher = more cleavage of the substrate by the protease variant
Conditions: temperature: 34 °C; time window: 0-4 h after rhamnose induction
Experimental: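 In vivo DNA recorder in E. coli TOP10(DE3) ΔrhaA at 34 °C. Each TEVp single-site mutant (parent TEVp 0) is paired with a single-site variant of the 7-mer TEVs (canonical ENLYFQ|S). The substrate sits between flexible linkers in a Bxb1-sfGFP-TEVs-SsrA fusion, so cleavage stabilises Bxb1 and speeds flipping of a recombination array, read by NGS. The value is the raw area under the fraction-flipped curve over 0-4 h after rhamnose induction (AUC4h), with ≥20 reads per time point. It is not background-subtracted; inactive controls average about 0.047.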
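Note: Bxb1 expression induced with 0.2% (w/v) L-rhamnose at OD600 near 0.5, cultures sampled hourly, flipped fraction per protease–substrate barcode pair counted by paired-end Illumina sequencing.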

Variant | area with substrate ENLAFQS | area with substrate ENLEFQS | area with substrate ENLFFQS | area with substrate ENLHFQS | area with substrate ENLKFQS | area with substrate ENLLFQS | area with substrate ENLMFQS | area with substrate ENLNFQS | area with substrate ENLPFQS | area with substrate ENLSFQS | area with substrate ENLCFQS | area with substrate ENLDFQS | area with substrate ENLGFQS | area with substrate ENLQFQS | area with substrate ENLRFQS | area with substrate ENLTFQS | area with substrate ENLWFQS | area with substrate ENLVFQS | area with substrate ENLIFQS
G214M | 0.0439 | 0.0646 | 0.0627 | 0.065 | 0.0644 | 0.0636 | 0.0666 | 0.0607 | 0.0571 | 0.0443 |  |  |  |  |  |  |  |  | 
G214K | 0.0623 | 0.089 | 0.0615 |  | 0.0732 |  | 0.0665 | 0.072 | 0.0585 | 0.0739 | 0.0757 | 0.06 | 0.0622 | 0.0622 | 0.0599 | 0.0763 |  |  | 
G214V | 0.0667 | 0.0627 | 0.0633 | 0.0648 | 0.0497 | 0.0542 |  | 0.063 | 0.0596 | 0.0594 | 0.0447 | 0.0417 |  | 0.0695 |  |  | 0.0218 |  | 
V229Y | 0.0786 | 0.0569 | 0.105 | 0.0726 | 0.0729 | 0.0558 |  | 0.0555 | 0.0467 | 0.0585 |  | 0.0612 | 0.0717 | 0.0642 | 0.0786 |  | 0.0715 | 0.0674 | 
V229L | 0.0632 | 0.059 | 0.0817 | 0.0779 | 0.0764 | 0.0483 |  | 0.0585 | 0.0538 | 0.0722 |  | 0.0475 |  | 0.068 | 0.0242 |  | 0.0492 | 0.0901 | 0.0694
G202S | 0.0712 |  | 0.0694 | 0.0794 | 0.0632 | 0.0711 |  | 0.0722 | 0.0485 | 0.0659 |  | 0.0589 |  |  | 0.0525 |  | 0.0717 |  | 0.0512
G202N | 0.0668 |  | 0.0604 |  | 0.0551 | 0.0724 |  |  |  |  |  | 0.072 | 0.0865 | 0.0463 | 0.0518 | 0.0998 | 0.0382 |  | 
E195D | 0.0576 | 0.045 | 0.0946 | 0.07 |  | 0.0562 | 0.068 | 0.0704 | 0.0574 | 0.0546 | 0.0784 | 0.0772 | 0.064 |  |  |  |  |  | 
E224T | 0.0718 |  | 0.0762 | 0.0617 | 0.0848 | 0.0596 |  | 0.0665 | 0.0639 |  | 0.0682 | 0.0436 |  | 0.0586 | 0.0696 | 0.0755 | 0.0642 |  | 0.0751
E224P | 0.0637 | 0.0469 | 0.082 | 0.0698 | 0.0782 |  | 0.0669 | 0.0583 | 0.0616 | 0.0489 |  | 0.0645 | 0.0757 | 0.0728 | 0.0636 | 0.0643 | 0.0699 | 0.0853 | 
T176L | 0.0552 | 0.0642 | 0.0722 | 0.0628 | 0.0644 | 0.0555 | 0.074 |  | 0.0626 |  |  | 0.0703 | 0.0547 | 0.0572 |  |  | 0.0543 | 0.0468 | 
W212M | 0.0821 | 0.0723 | 0.0914 | 0.102 | 0.0922 | 0.0552 |  | 0.0671 | 0.0601 | 0.044 | 0.11 | 0.0704 |  | 0.0607 | 0.0699 |  |  |  | 
P228N | 0.0698 | 0.0652 | 0.0765 | 0.0908 | 0.0828 | 0.078 |  | 0.0604 | 0.0665 | 0.0702 |  | 0.045 |  |  |  |  |  | 0.0771 | 
Q198Y | 0.059 | 0.0533 | 0.0741 | 0.0709 | 0.0628 | 0.0518 | 0.0665 | 0.0588 | 0.0654 | 0.0376 | 0.062 | 0.0623 | 0.0636 | 0.0622 | 0.0682 |  | 0.0633 | 0.0801 | 0.0773
F226Y | 0.0755 | 0.0514 | 0.0938 |  | 0.0781 |  |  | 0.075 | 0.0376 | 0.0579 | 0.0729 | 0.0618 | 0.0548 | 0.0667 |  |  | 0.0584 |  | 0.0862
N178I | 0.0574 |  |  |  |  |  |  |  |  |  |  | 0.0684 |  |  |  | 0.0742 | 0.0493 |  | 
V183C | 0.056 | 0.0589 | 0.078 | 0.0712 | 0.0857 | 0.0648 | 0.0866 | 0.0709 | 0.0664 | 0.0643 | 0.0574 |  |  | 0.0639 | 0.0768 |  | 0.0599 | 0.123 | 
N177V | 0.0793 |  | 0.131 | 0.0645 | 0.0972 |  |  | 0.0498 | 0.0771 |  | 0.0844 | 0.0591 |  | 0.0739 |  |  |  | 0.166 | 0.0961
M219D | 0.0634 | 0.0656 | 0.065 | 0.0519 | 0.0584 | 0.0529 | 0.0652 | 0.0643 | 0.0602 | 0.0565 | 0.0643 | 0.0619 | 0.0628 |  | 0.0624 |  | 0.0647 |  | 0.0595
M219Q | 0.0514 | 0.0538 | 0.0777 | 0.0567 | 0.0613 |  |  | 0.0812 | 0.0671 | 0.0483 | 0.0673 | 0.0656 | 0.0386 | 0.0322 | 0.0654 |  |  |  | 0.0719
T181G | 0.0589 | 0.0536 | 0.0702 | 0.0676 | 0.0665 |  |  | 0.066 | 0.0526 |  | 0.0851 | 0.085 |  | 0.062 | 0.0485 |  | 0.0696 |  | 
Q227E | 0.0777 | 0.0653 |  |  | 0.0407 | 0.0791 | 0.0796 | 0.0502 | 0.0602 | 0.0562 | 0.0616 | 0.0578 |  | 0.153 | 0.0544 |  | 0.0596 | 0.0894 | 
Q227M | 0.0455 | 0.0617 | 0.0972 | 0.0643 | 0.0785 |  |  | 0.0606 | 0.0369 | 0.0654 |  | 0.0687 |  | 0.0708 | 0.0737 | 0.071 |  |  | 0.103
Q227P | 0.0782 |  | 0.1 | 0.0742 | 0.0768 | 0.0522 | 0.0667 | 0.0599 | 0.0497 | 0.071 |  | 0.0516 | 0.0519 |  |  |  | 0.0832 |  | 
F218S | 0.0646 | 0.0612 | 0.0816 | 0.0595 | 0.0777 | 0.0853 |  |  | 0.0615 |  |  | 0.0757 | 0.0486 |  |  | 0.0763 | 0.0651 |  | 0.0679
F218G | 0.0378 |  | 0.0639 | 0.0512 | 0.0661 |  |  | 0.0659 |  |  | 0.0649 | 0.0632 |  |  | 0.0938 |  |  |  | 
S201P | 0.0609 | 0.0624 | 0.0648 |  |  |  | 0.0686 | 0.0667 | 0.0589 |  | 0.0598 |  |  | 0.0722 | 0.0757 | 0.0795 | 0.0595 | 0.0687 | 

From the supplement of paper PMC12217912
